According to article PMC6919601, “Identification of Plasmodium dipeptidyl aminopeptidase allosteric inhibitors by high throughput screening” (PLoS ONE, 2019):
The campaign covered roughly 110,000 compounds. About 230 (0.21%) showed an effect of 50% or more. The list shows a part of the results.

Target: DPAP1 (Plasmodium falciparum, UniProt Q8IIJ9)
Assay: primary screen, percent inhibition; read by cleavage of a fluorogenic dipeptide substrate; higher = more effect of the substance
Set-up: species or system P. falciparum D10 trophozoite lysates; single well
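Note: 30 min substrate incubation versus DMSO and 10 µM JCP410 controls.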

DPAP1, sequence (Q8IIJ9 whole entry, looked up): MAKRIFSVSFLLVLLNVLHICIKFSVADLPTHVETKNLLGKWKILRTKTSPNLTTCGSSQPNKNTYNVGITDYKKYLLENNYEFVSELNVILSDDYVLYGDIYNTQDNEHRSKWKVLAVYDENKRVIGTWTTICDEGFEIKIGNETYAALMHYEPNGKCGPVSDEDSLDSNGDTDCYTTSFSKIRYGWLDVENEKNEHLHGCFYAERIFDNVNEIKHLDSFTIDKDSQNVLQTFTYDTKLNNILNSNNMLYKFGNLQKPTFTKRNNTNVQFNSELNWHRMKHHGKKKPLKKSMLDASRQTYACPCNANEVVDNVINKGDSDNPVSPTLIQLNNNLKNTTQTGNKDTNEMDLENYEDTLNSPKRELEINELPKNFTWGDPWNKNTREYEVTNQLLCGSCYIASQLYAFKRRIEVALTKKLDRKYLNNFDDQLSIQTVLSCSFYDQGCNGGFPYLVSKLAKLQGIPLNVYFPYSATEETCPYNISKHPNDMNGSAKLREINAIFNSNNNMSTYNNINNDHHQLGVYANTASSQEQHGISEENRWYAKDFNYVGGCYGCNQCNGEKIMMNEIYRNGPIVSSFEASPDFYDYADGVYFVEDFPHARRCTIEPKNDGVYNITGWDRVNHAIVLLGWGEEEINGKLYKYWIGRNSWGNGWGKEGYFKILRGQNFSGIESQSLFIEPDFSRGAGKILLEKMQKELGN

SMILES | % Inhibition @ 10 uM
CC1=C(c2ccc(C)cc2)S(=O)(=O)N=C1NC(C)C | 0.623%
COc1ccc(C2C(C#N)=C(N)Oc3[nH]nc(C)c32)cc1COc1ccc(Cl)cc1 (stereo not shown) | 3.19%
COc1ccc2nc3c(O)n(CCc4ccc(Cl)cc4)cnc-3c2c1 | 1.64%
O=C(NCCc1ccccc1)Nc1ccccc1 | 3.82%
CCc1ccc(NC(=O)CSc2nc(N)cc(O)n2)cc1 | -7.76%
CC(NC(=O)CNC(=S)N1CC2CC(C1)c1cccc(=O)n1C2)c1ccccc1 (stereo not shown) | -7.85%
O=C(COc1ccccc1Cl)N(Cc1ccccc1)c1ccccn1 | 3.62%
CN(CC(=O)N1CCCCCC1)S(=O)(=O)c1cccc2nsnc12 | -3.23%
Cc1nc2ccc(S(=O)(=O)N(C)CC(=O)Nc3nc4ccc(Cl)cc4s3)cc2s1 | 15.2%
Cc1cc(C)cc(NC(=O)C(C)Oc2ccccc2)c1 (stereo not shown) | -5.88%
Clc1ccc(Oc2cccc(CN3CCN(c4ccc(Cl)cc4)CC3)c2)cc1 | -0.261%
Cc1cccc(CCNC(=O)c2cn(CC(C)C)c(=O)c3c2c2ccccc2n3C)c1 | -5.77%
Cc1ccc(C)c(C2C(C#N)=C(N)OC3=C2C(=O)CCC3)c1 (stereo not shown) | -5.07%
Cc1ccc(NC(=O)c2cccc(Cl)c2)c(Br)c1 | -0.771%
Cn1c2ccccc2c2c(C(=O)NCCCN3CCCC3=O)cn(C3CCCCC3)c(=O)c21 | -1.58%
CSc1nc(-c2ccccc2)nc2nc(-c3ccccc3)cc(O)c12 | 2.36%
CCc1ccc(CNCc2c(C(=O)O)n(Cc3ccccc3F)c3cc(OC)ccc23)cc1 | 4.66%
CCc1ccc(C2N(c3cc(C)on3)C(=O)C3CCCN32)cc1 (stereo not shown) | -0.499%
CCc1ccc(N2CC(C(=O)Nc3ccccc3C(=O)NC3CCCCC3)CC2=O)cc1 (stereo not shown) | -4.38%
COc1ccc(CN2C(=O)c3cccnc3C2=O)cc1S(=O)(=O)NCC(C)c1ccccc1 (stereo not shown) | -9.16%
N#Cc1c(NC(=O)c2cc3nc(-c4ccccc4)cc(C(F)(F)F)n3n2)sc2c1CCCC2 | -3.27%
Cc1oc2c(c1C(=O)N1CCCC1)C(=O)c1ccccc1C2=O | 1.72%

SMILES | % Inhibition @ 10 uM
c1ccc(-c2nc3c(c(N4CCCCC4)n2)C2(CCCCC2)Cc2ccccc2-3)cc1 | 3.01%
C/C(=N\Cc1ccccc1)c1sc2ccccc2c1O | 21.8%
CCSc1sc(CCN(CC)CC)cc1/C=N/O | 1.29%
COc1cc(CN(C(=S)NCC(=O)N2CCCC2)C2CCCC2)cc(OC)c1OC | 2.9%
Oc1ccc(-c2ccccc2)nn1 | 3.04%
COc1ccc(CCCC(=O)Nc2ccccc2Cl)cc1 | -3.28%
COC(=O)c1ccc(C2NC(C(=O)O)CS2)cc1 (stereo not shown) | -5.15%
CCSc1nc2c(cc1C#N)CCCC2 | 9.41%
CN1CCN(C(=O)c2ccccc2Sc2ccccc2)CC1 | -2.98%
O=C(C1=NOC2C3CCC(C3)C12)c1ccccc1 (stereo not shown) | -1.78%
CC(=O)C1=C(C)NC(SCC(=O)c2cc(Cl)ccc2Cl)=C(C#N)C1c1cccs1 (stereo not shown) | 10.9%
COc1ccc(CN2CCN(c3cccc(Cl)c3)CC2)cc1C | 1.4%
COc1ccc(-c2nn(C)c3sc(C(=O)N4CCC(C#N)CC4)cc23)cc1OC | 1.91%
Cc1ccccc1C(=O)OCCN1CCCCC1 | -5.51%
O=C(c1ccco1)c1cn(CCOc2ccccc2)c2ccccc12 | 2.1%
CCOC(=O)c1cc(-c2ccc(/C=C3/C(=O)ON=C3C)o2)ccc1Cl | -2.87%
COc1cc2c(cc1OC)C(C(=O)N(C)Cc1ccccc1)C(c1ccc(SC)cc1)N(C)C2=O (stereo not shown) | 2.17%
Cc1ccc(-c2c(C#N)c(N)nc3c2CCCCCC3)o1 | 2%
O=C(NCCc1cccs1)C(c1ccccc1)c1ccccc1 | -4.42%
CC(CCc1ccccc1)NC(=O)C(=O)N1CCOCC1 (stereo not shown) | 3.79%
Cc1oc(-c2ccc(Cl)cc2)nc1CN1CCC(C(=O)NCCN2CCCCC2C)CC1 (stereo not shown) | 2.37%
Cc1ccc(-c2cc(C(=O)NCC3CCCO3)[nH]n2)cc1C (stereo not shown) | -0.537%

SMILES | % Inhibition @ 10 uM
Cc1ccc(S(=O)(=O)N(CC(=O)N2CCCCCC2)Cc2ccc(Cl)cc2)cc1 | -4.71%
Cc1ccc(CN(C(=O)c2ccc(OC(C)C)cc2)C2CCS(=O)(=O)C2)o1 (stereo not shown) | -1.11%
Cc1nc2ccn(Cc3cccnc3)c(=O)c2cc1C(=O)NCc1ccc2c(c1)OCO2 | -5.72%
CCOC(=O)N1CCN(C(=O)c2cc3c(s2)-c2ccc(Cl)cc2SC3)CC1 | 7.12%
CC(CCc1ccc(O)cc1)NC1CCCC(C)C1C (stereo not shown) | -0.233%
O=C(O)Cc1sc(Nc2nc3ccccc3s2)nc1-c1ccccc1 | 3.93%
CC(NCC(O)Cn1c2ccccc2c2ccccc21)C(=O)O (stereo not shown) | 0.0289%
CSc1ccc(C2C3=C(CCCC3=O)OC3=C2C(=O)CCC3)cc1 | 2.38%
CN(CC(CC(=O)Nc1nnc(-c2ccccc2)s1)c1ccccc1)S(=O)(=O)c1ccccc1 (stereo not shown) | -0.834%
CC1=N/C(=C/c2cc3cccc(C)c3nc2Sc2ccccc2)C(=O)O1 | 0.275%
COc1cccc(CCNC2C3CC4CC(C3)CC2C4)c1 (stereo not shown) | -0.0494%
CC1=C(C(=O)OCc2ccccc2)C(c2ccc(OCc3ccccc3)cc2)NC(=O)N1 (stereo not shown) | 5.44%
O=C(Nc1nc2c(s1)C(=O)CCC2)c1ccccc1Cl | -6.04%
Cc1nn(Cc2noc(C(=O)NCCc3c[nH]c4ccccc34)n2)c(C)c1Br | -3.07%
CCC(CC)C(=O)Nc1nnc(S(=O)(=O)N2CCCC2)s1 | 1.68%
O=C(Nc1cccc(Cl)c1)N(CCCN1CCOCC1)Cc1ccccc1F | -2.29%
Cc1nn(C(C)C(=O)NCCCN(C)C2CCCCC2)c(=O)c2nn(-c3ccccc3)c(C)c12 (stereo not shown) | 4.81%
CCOc1ccccc1N(CC(=O)NCc1ccc(Cl)cc1)S(C)(=O)=O | -3.5%
O=C1NC(=S)SC1=C1CCCCC1 | -0.0494%
COCc1cc(C)nc(SCC(=O)Nc2ccc(Br)c(C)c2C)c1C#N | -5.63%
